In all, about 310,000 compounds went through this assay and about 14,000 (4.5%) showed an effect of 50% or more. The effect is printed as a negative number. The list shows a part of the results.
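Also: peak tail current of the secondary pulse compared with the same well before compound.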

Sequence of human ether-à-go-go-related gene (hERG) potassium channel (Q12809 whole entry, looked up): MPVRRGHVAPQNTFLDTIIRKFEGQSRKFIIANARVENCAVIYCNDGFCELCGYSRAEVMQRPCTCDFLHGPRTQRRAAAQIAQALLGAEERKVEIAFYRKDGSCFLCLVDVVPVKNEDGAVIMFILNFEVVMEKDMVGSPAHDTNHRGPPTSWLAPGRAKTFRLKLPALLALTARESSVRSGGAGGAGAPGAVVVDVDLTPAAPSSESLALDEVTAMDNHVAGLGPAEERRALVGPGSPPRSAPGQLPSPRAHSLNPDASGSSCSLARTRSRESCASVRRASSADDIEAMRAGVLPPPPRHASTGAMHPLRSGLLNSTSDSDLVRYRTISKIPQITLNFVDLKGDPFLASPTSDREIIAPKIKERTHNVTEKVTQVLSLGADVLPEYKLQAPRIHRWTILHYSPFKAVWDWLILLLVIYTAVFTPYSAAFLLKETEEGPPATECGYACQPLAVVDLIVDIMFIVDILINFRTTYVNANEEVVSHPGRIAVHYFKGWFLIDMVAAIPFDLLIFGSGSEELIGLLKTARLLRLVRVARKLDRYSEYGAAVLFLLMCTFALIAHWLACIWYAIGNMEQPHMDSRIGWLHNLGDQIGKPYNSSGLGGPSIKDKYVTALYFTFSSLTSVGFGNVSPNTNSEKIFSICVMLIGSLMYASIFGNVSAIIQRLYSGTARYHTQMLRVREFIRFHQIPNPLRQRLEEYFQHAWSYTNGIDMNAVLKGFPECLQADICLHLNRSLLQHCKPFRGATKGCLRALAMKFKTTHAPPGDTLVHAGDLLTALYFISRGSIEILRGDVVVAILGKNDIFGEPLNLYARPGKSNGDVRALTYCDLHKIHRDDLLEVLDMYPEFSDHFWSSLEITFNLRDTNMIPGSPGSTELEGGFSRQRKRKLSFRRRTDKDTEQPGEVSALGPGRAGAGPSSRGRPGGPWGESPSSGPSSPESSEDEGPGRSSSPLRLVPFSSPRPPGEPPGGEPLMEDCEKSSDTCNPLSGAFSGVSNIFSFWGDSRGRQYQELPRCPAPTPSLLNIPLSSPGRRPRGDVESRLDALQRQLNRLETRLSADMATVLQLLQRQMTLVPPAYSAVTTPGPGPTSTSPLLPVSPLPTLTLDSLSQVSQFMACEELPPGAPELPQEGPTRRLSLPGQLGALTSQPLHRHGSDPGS

The experiment concerns the target human ether-à-go-go-related gene (hERG) potassium channel (human, UniProt Q12809). The experiment is described as follows: primary screen, population patch clamp on CHO cells stably expressing hERG.
In the case of `CN1CCN(CC(O)COc2ccc(OCC(O)CN3CCN(C)CC3)cc2)CC1` (centres unmarked), the “hERG current change (%, negative = inhibition) at 10uM” value was -7.27%. For the compound `COc1ccc(-c2csc(N(CC3CCCO3)C(=O)c3ccccc3)n2)cc1` (centres unmarked), the “hERG current change (%, negative = inhibition) at 10uM” value turned out to be 1.81%. Take `CCOC(=O)C1=C(C)NC(C)=C(C(=O)OCC)C1C(=O)OCC(=O)N(CC)C1CCS(=O)(=O)C1` (centres unmarked): the “hERG current change (%, negative = inhibition) at 10uM” value was determined as 24.3%. `O=C(NC1CCCCCC1)C(=S)NC1CCCCC1`: the “hERG current change (%, negative = inhibition) at 10uM” value is recorded as 18.1%.

With `CCCCN(CC)C(=O)Cn1c(=O)sc2ccccc21`, the “hERG current change (%, negative = inhibition) at 10uM” value is reported as -3.64%. In the case of `CCc1sc(C(=O)Nc2ccsc2C(=O)OC)cc1Br`, the “hERG current change (%, negative = inhibition) at 10uM” value is listed as -5.86%. With `COc1ccccc1OCC(=O)OCC(=O)NCCN1C(=O)CSC1=O`, the “hERG current change (%, negative = inhibition) at 10uM” value is reported as -0.783%.

Regarding `O=C1N/C(=N/S(=O)(=O)c2ccccc2)S/C1=C/c1cccnc1`, the “hERG current change (%, negative = inhibition) at 10uM” value worked out at 1.74%.

Turning to `C=CCNC(=S)N1CCN(c2ncc(C(F)(F)F)cc2Cl)CC1`, the “hERG current change (%, negative = inhibition) at 10uM” value was -33.7%.

`CCC(C)(C)n1nnnc1C(c1cc2cccc(C)c2[nH]c1=O)N1CCCC1` (centres unmarked): the “hERG current change (%, negative = inhibition) at 10uM” value is given as -0.736%. Turning to `O=C(Nc1cccc(-c2nnc(-c3ccccc3)o2)c1)C1CCCO1` (centres unmarked), the “hERG current change (%, negative = inhibition) at 10uM” value is listed as -66.5%. Take `COCC(=O)Nc1ccc([N+](=O)[O-])cc1C`: the “hERG current change (%, negative = inhibition) at 10uM” value was -2.44%. For `CC(C)(C)OC(=O)N1CC=C2C(C#N)=C(N)C(C#N)(C#N)[C@H](c3cccnc3)[C@H]2C1`, the “hERG current change (%, negative = inhibition) at 10uM” value is -1.45%. With `COc1cc2c(cc1OC)C(c1ccccc1C)CC(=O)N2` (centres unmarked), the “hERG current change (%, negative = inhibition) at 10uM” value is recorded as -2.27%. In the case of `COc1ccc(CCNC(=O)c2ccc(-c3cccc([N+](=O)[O-])c3)o2)cc1OC`, the “hERG current change (%, negative = inhibition) at 10uM” value is given as -26.7%.

With `CCc1cccc2c(C(=O)COC(=O)C3=NNC(=O)CC3)c[nH]c12`, the “hERG current change (%, negative = inhibition) at 10uM” value was -51.6%. In the case of `COC(=O)c1ccc2nc(NC(=O)C3CC3)sc2c1` it was 14%; in that of `Cc1ccc(C)c(N=C2NC(=O)CS2)c1`, 13.6%. As to `CCCc1ccc(Oc2coc3cc(OCC(=O)Nc4ccccc4C)ccc3c2=O)cc1`, the “hERG current change (%, negative = inhibition) at 10uM” value is -0.217%. `COc1ccc(C2=Nn3c(nnc3-c3ccncc3)SC2)cc1`: the “hERG current change (%, negative = inhibition) at 10uM” value is -41.1%. The result for `CN(C(=O)c1cc2nc(-c3ccco3)cc(C(F)(F)F)n2n1)C1CCCCC1` reads -10.6%; that for `COc1ccc(S(=O)(=O)Nc2ccc(F)cc2)c(C)c1C`, -8.11%; that for `Cc1nc([N+](=O)[O-])c(Sc2nc3ccccc3[nH]2)n1Cc1ccccc1`, 4.74%. Take `COc1ccc(/C=N/NC(=O)C(=O)N2CCCCCC2)cc1O`: the “hERG current change (%, negative = inhibition) at 10uM” value is -30.3%. Regarding `Cc1ccc(S(=O)(=O)NC(C)c2ccccc2)cc1[N+](=O)[O-]` (centres unmarked), the “hERG current change (%, negative = inhibition) at 10uM” value is given as 9.16%. In the case of `O=C(CSc1ccc(Cl)cc1)NCc1ccco1`, the “hERG current change (%, negative = inhibition) at 10uM” value came out at 21.1%. In the case of `Cc1cccc(N(Cc2cc(=O)[nH]c3ccccc23)C(=O)CCl)c1`, the “hERG current change (%, negative = inhibition) at 10uM” value was -10.6%. For the compound `Cc1ccc(S(=O)(=O)N(C)CC(=O)O/N=C(\N)c2ccc([N+](=O)[O-])cc2)cc1`, the “hERG current change (%, negative = inhibition) at 10uM” value is listed as -45.9%. The result for `CSc1nc(N2CCN(C)CC2)c2c(c1C#N)CC(C)(C)OC2` reads -43.8%; that for `COCCn1c(SCC(=O)N2CCCCC2)nc2c([nH]c3ccccc32)c1=O`, -20.5%. `CCC(=O)Nc1cc(C(C)(C)C)ccc1C(C)=O`: the “hERG current change (%, negative = inhibition) at 10uM” value is given as 10.5%. On to `COc1ccc(NC(=O)c2sccc2SCc2cccc(C(F)(F)F)c2)cc1`, for which the “hERG current change (%, negative = inhibition) at 10uM” value turned out to be 12.8%. Consider `COc1ccc(C2NC(=O)c3ccccc3N2)cc1` (centres unmarked), for which the “hERG current change (%, negative = inhibition) at 10uM” value was 16.1%. For `C=CCSc1nccc(-c2cc(Cl)sc2Cl)n1`, the “hERG current change (%, negative = inhibition) at 10uM” value is -15.7%. On to `Cc1cccc(/C=C\c2nc3ccccc3c(=O)[nH]2)c1`, for which the “hERG current change (%, negative = inhibition) at 10uM” value amounted to 14.4%.

As to `COCCNC(=O)c1c(CSc2ccc(F)cc2)noc1C(=O)NCc1ccccc1`, the “hERG current change (%, negative = inhibition) at 10uM” value is 6.56%.

With `Cc1ccccc1NC(=O)C1CCCN(c2nnc(N3CCCC3=O)s2)C1` (centres unmarked), the “hERG current change (%, negative = inhibition) at 10uM” value is -10.7%. For the compound `O=C1c2ccccc2S(=O)(=O)N1CC1CC(c2ccc(Cl)cc2)=NO1` (centres unmarked), the “hERG current change (%, negative = inhibition) at 10uM” value is on record as -19.2%. The result for `O=[N+]([O-])/C=C\c1ccc(N2CCOCC2)cc1` reads -45.4%.

For `CCc1ccc(OCC(=O)Oc2ccc([N+](=O)[O-])cc2)cc1`, the “hERG current change (%, negative = inhibition) at 10uM” value worked out at 28.7%. In the case of `CC1(C)CC(=O)c2c(n(S(=O)(=O)c3ccccc3)c3ccc(NS(=O)(=O)c4ccccc4)cc23)C1`, the “hERG current change (%, negative = inhibition) at 10uM” value is 17.7%. `CCN1c2ccccc2N(C)C1(C)c1ccccc1` (centres unmarked): the “hERG current change (%, negative = inhibition) at 10uM” value is listed as 0.481%. In the case of `C=C(C)C(=O)Nc1ccc(NC(C)C)cc1` it was 18.7%. `CCOC(=O)c1c(-c2ccc(OC)cc2)csc1/N=C/C1=C(O)CCCC1=O`: the “hERG current change (%, negative = inhibition) at 10uM” value is -1.25%.

For the origin of these results see PMC4336329 (PLoS ONE, 2015).
